Data on 25 sequences can be found in the supplement of paper PMC11417369.

± gives the standard deviation of the averaged measurements. This is one part of the list.

This test relates to PfAP2-EXP AP2 domain (GST-tagged). The experiment in a line: gcPBM binding intensity (ln(normalized median fluorescence intensity)); higher = stronger DNA binding. The method, boiled down:
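Binding intensity is the highest Masliner-normalised natural-log median intensity over replicate spots in either probe orientation. To obtain it, GST-tagged P. falciparum DNA-binding domains made in E. coli were incubated for 1 h on an Agilent 4 × 180k array of primer-extended double-stranded 36-bp intergenic genomic probes plus negative controls. Detection used Alexa488 anti-GST antibody with scanning at 488 nm.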
Turning to “TATATTGAAAATAAAACATGCAATCACTCATACATA [TGCATGCA_site248]”, the “gcPBM binding intensity (ln)” value is 8.61 ± 0.26.

For the sequence “CAACAATTTCGTCATACACACATTCAGAATCTATAT [CACACA_site7171]”, the “gcPBM binding intensity (ln)” value is 8.56 ± 0.56.

Regarding “TATACATTTATGTACACACACATATAGGTATATTTA [CACACA_site7408]”, the “gcPBM binding intensity (ln)” value came to 8.47 ± 0.099.

On to “AAAATATAATATATTACACACATATATTTTATAAGT [CACACA_site668]”, for which the “gcPBM binding intensity (ln)” value is 8.27 ± 0.38.

As to “CAAACTACAAAATTTCGTACGCATATATTTCAAGTA [XGTACX_site5154]”, the “gcPBM binding intensity (ln)” value stood at 8.57 ± 0.37.

For the sequence “AAAACATACATATATACACACATATATATATATATA [CACACA_site1852]”, the “gcPBM binding intensity (ln)” value is 10.2 ± 0.23.

For “TATGTTGGTTCTTTTAGTACATAATTACTAAATGTA [XGTACX_site8616]”, the “gcPBM binding intensity (ln)” value stood at 8.56 ± 0.29.

As to “CTTTTTTATATCTCTACACACATTTATAACAATTTG [CACACA_site1398]”, the “gcPBM binding intensity (ln)” value stood at 8.57 ± 0.2.

As for “CAAAAAAGTAAAACGTGTACATATATACATAAAAAT [XGTACX_site5639]”, the “gcPBM binding intensity (ln)” value turned out to be 9.09 ± 0.48.

Consider TTTAAACGTTATATAGTGCATGTCATATTTTATTAT, for which the “gcPBM binding intensity (ln)” value amounted to 8.71 ± 0.33.

Turning to “TACGTAATAATATGCACACAAATAAACTTTATAAAT [CACACA_site3501]”, the “gcPBM binding intensity (ln)” value worked out at 8.71 ± 0.42.

“TGCAACAAAATAAACACACACACACTAACACAAAAA [CACACA_site7567]”: the “gcPBM binding intensity (ln)” value stood at 8.72 ± 0.45.

Take “TTTAAAAATAAAAGTACACACATAAACATATTGCAC [CACACA_site6784]”: the “gcPBM binding intensity (ln)” value is 8.94 ± 0.14.

Take “ATATTATATATATGTGCACACAAAAGATATATATAT [CACACA_site2125]”: the “gcPBM binding intensity (ln)” value was 9.445 ± 0.021.

Take “CTTAAAAAAACCTTAACACACATAAACTATAATTTA [CACACA_site3055]”: the “gcPBM binding intensity (ln)” value is 8.27 ± 0.49.

“TTTTCATTTGAAAGTCGTACAAGTTCGAAAAAAGGA [XGTACX_site6840]”: the “gcPBM binding intensity (ln)” value came to 8.61 ± 0.43.

Turning to “ATAAGCAATAAAAAAACATGCATATTATTATCAACA [TGCATGCA_site1027]”, the “gcPBM binding intensity (ln)” value turned out to be 8.67 ± 0.37.

As for “TATGGTATATACAACACACACACATATGTATATATA [CACACA_site927]”, the “gcPBM binding intensity (ln)” value amounted to 9.03.

With “TCTTTAATATATAGTGCATGTAAATTTTACAATAAT [TGCATGCA_site242]”, the “gcPBM binding intensity (ln)” value amounted to 9.04 ± 0.26.

In the case of “ATCAAGCACGGACACACACACACACCCAGACCCCCA [CACACA_site4360]”, the “gcPBM binding intensity (ln)” value stood at 9.16 ± 0.57.

AAGTTAACACAACAGGTGCAAGAAAAGTTTTTAATG: the “gcPBM binding intensity (ln)” value was 8.66 ± 0.028.

Regarding “AGTTAATGTTTATGTACACACGGTGGGTATATATTT [CACACA_site5785]”, the “gcPBM binding intensity (ln)” value worked out at 8.77 ± 0.41.

For the sequence “ATATATATATATATATATATAATTTTTTTTGTTTTT [TGCATGCA_negctrl_site453]”, the “gcPBM binding intensity (ln)” value was determined as 10.3 ± 0.3.

Regarding “TATATTATTAATTAGGGTACAAAAAAAAAATTTTTT [XGTACX_site7762]”, the “gcPBM binding intensity (ln)” value is 8.6 ± 0.54.

“GATATCAAAAAGATGGGTACATATATTTAAGTTCAT [XGTACX_site3822]”: the “gcPBM binding intensity (ln)” value came to 8.38 ± 0.4.
